Some of the results follow.
T1: UNK ZnF1-6 (called full-length) (human, UniProt Q9C0B0 30-357)
T1 sequence: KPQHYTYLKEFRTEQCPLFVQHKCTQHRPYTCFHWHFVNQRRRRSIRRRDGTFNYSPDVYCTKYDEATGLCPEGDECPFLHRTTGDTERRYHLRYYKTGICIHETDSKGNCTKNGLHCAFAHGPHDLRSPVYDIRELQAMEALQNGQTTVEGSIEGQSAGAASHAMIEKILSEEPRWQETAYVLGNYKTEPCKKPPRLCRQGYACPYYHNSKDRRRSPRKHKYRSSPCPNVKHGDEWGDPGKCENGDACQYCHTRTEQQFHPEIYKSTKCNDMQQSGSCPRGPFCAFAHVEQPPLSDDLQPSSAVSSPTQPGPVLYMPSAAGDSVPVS

B1: chr2:73730642:73730743:-|CDS|ENSG00000144034|unk|FALSE|unique (ssRNA)
RNA: GGGAGUUCUACAGUCCGACGAUCUUCAGACGUAGGAAACAAUGGUUAAUGAUCUUGUGUUUUUUUUUUCAUUUUUUUUCUCUUAGAUUUCAGAGGCUUUGAAAAAAUUUGGUAUCUCAGCAAAUGACACUUCAAUUCUAAUUGCAACAGAGGAUUGAGCAUCA
B2: chr19:39539560:39539696:-|CDS|ENSG00000176396|unk|total|mutant (ssRNA)
RNA: GGGAGUUCUACAGUCCGACGAUCCGGGAACGGAGGCCUGGCUGCGUUGCCCUAUCUCCGUCUCCGCCACCCACUCCGCGUUUCCGGCAUCAAUUACCAGCAGUUUCUCCGCCACUAUCUGGAAAAUUACCCGAUUGCUCCCGGCAACAGAGGAUUGAGCAUCA
B3: chr1:150647640:150647741:-|3pUTR|ENSG00000143457|unk|total|mutant (ssRNA)
RNA: GGGAGUUCUACAGUCCGACGAUCAGAUUCAAUUACCUGGAUGUCAAAGUCCCCGAGCCAGAAAUAUAUUCUCUCAUCCCUCUCCGCAUUCUCUUGCUCCCUCAUUCACCCGGGCAAAUGUCUAAAUGAAGAAAAGUCUCUCUCCAACAGAGGAUUGAGCAUCA
B4: chr14:49622334:49622435:+|CDS|ENSG00000168282|unk|total|mutant (ssRNA)
RNA: GGGAGUUCUACAGUCCGACGAUCCAAUACUUGACUGUAUCUUGUCUUCCAAAAUUCUGGAAAGUGCUGGUUCCUCAAAUUCCCCGGAUCUUUCAUGCUGGAGACUGUGGUAUGCAUCACAAGAAAACCUGCCGACCAUCCACUCAACAGAGGAUUGAGCAUCA
B5: chrX:71240429:71240530:-|3pUTR|ENSG00000147130|msi1|total|mutant (ssRNA)
RNA: GGGAGUUCUACAGUCCGACGAUCGGCUUUGGGUUUCCUGACCCAUCCCGCACCGGCCGAGCCUCUUGUUCCCCGGCAUGACCCCGGGAAAAACCCAGCUGCCUUCUCUGCCCUGUGCCCACUCCCUUCUCUACUCUUCCCCAGCAACAGAGGAUUGAGCAUCA
B6: ENSG00000044524:stop:overlap|stop_codon|ENSG00000044524|stop_codon|NA|stop_codon (ssRNA)
RNA: GGGAGUUCUACAGUCCGACGAUCACAGCCGCAAGUUUGAGUUUGAAACUAGUCCAGACUGUAUGUAUUAUUUCAAUGCAGUCUAGAGGAGGGGGCAGGGAUCUUGCAAAAGAUGUCUGAUCGUUUAUUCUCACUGUUUCUAAGCAACAGAGGAUUGAGCAUCA
B7: chr13:113500007:113500108:+|CDS|ENSG00000150403|unk|total|mutant (ssRNA)
RNA: GGGAGUUCUACAGUCCGACGAUCGAAGAGGCCAAUUCUAAGCAAAAUAUAACAAAACGAGAAGUGGAGGAUGACUUGGGUCUCCGCAUGCUGAUUGACUCCCAGAACAACCAGUAUAUUUUGACCAAGCCCAGAGAUUCAACCCAACAGAGGAUUGAGCAUCA
B8: chr2:167954955:167954998:-|3pUTR|ENSG00000198648|msi1_unk|total|mutant (ssRNA)
RNA: GGGAGUUCUACAGUCCGACGAUCGUUGUAUUCCGAAAUUAAUAUACUUAUAAAAUUAAGAUUUAUCCGCCAAACUUGAAUUCCCGUUUUAAAACUGACUGUGAAUUUUAUUUUUCAUAUAUUUAUGCAUUACACACCUCCGCUCAACAGAGGAUUGAGCAUCA
B9: chr10:75150949:75151073:+|CDS|ENSG00000156671|unk|total|mutant (ssRNA)
RNA: GGGAGUUCUACAGUCCGACGAUCUGUUCGAAGAUUGGACCCAGAAUACUGGAAGACUAUACUGAGUUGUAUAUAUGUUUUUACCGUAUUUGGAUUUACAUCUUUCAUUAUGGUUACCGUCCAUGAGCGAGUGCCUGACAUGCACAACAGAGGAUUGAGCAUCA
B10: chr14:96341565:96341677:-|CDS|ENSG00000066739|unk|FALSE|unique (ssRNA)
RNA: GGGAGUUCUACAGUCCGACGAUCCUGGAACCCCAAAAUUAUUUAUGAGCCACACCCACAGCUAACUAGAAAUUUACCAGAGAUAGCACCUUCUGACCCAGUGCAGAUUGGACGGUUAAUUGGUAGGUUGGAGUUGAGUCUCACCAACAGAGGAUUGAGCAUCA
B11: chr16:20924479:20924582:+|3pUTR|ENSG00000102897|unk|FALSE|unique (ssRNA)
RNA: GGGAGUUCUACAGUCCGACGAUCCUACUAUAAAACUAUGUACCACUCUCAGAAUAUUCUUAGGCUUUUUUUUUUUCAAGUUAUAGAUUUGCUUAAAGUGAGGUUUUUUGGUGUGUGCUUUUUUGUUGUCUUUUGACCCUUCCACAACAGAGGAUUGAGCAUCA
B12: chr9:34610807:34611296:-|CDS|ENSG00000164967|control|control|control (ssRNA)
RNA: GGGAGUUCUACAGUCCGACGAUCCAAGCUACGUUUCCUUCAGACUGAGGACAGCUGGGUCCCAGCCUCACCUGACACAGGGCUAGACCCCCUCACAGUGCGCCGCCAUGUGCCUGCAGUGUGGGUGCUGCUCAGCCGGGACCCCAACAGAGGAUUGAGCAUCA
B13: ENSG00000141127:stop:overlap|stop_codon|ENSG00000141127|stop_codon|NA|stop_codon (ssRNA)
RNA: GGGAGUUCUACAGUCCGACGAUCAUUCAUCAUGUAUGGAGCUAUCAAAGAAAAUUGCAGACUUUUUCCCCCUUUCUCUUCUCUAGGCGGCUAGGGGUGGAGAUGGGCAAAGUGCAGGUUUACCAGGAACCUAACAGAGAAACACAACAGAGGAUUGAGCAUCA
B14: chr13:77097425:77097526:-|CDS|ENSG00000005810|msi1|total|mutant (ssRNA)
RNA: GGGAGUUCUACAGUCCGACGAUCAGAAAAGGCAGAAGUCCGGCCCAGGGGUAAUUUGUUUGGAGAGAUGGCCCAGCUGGCAGCCGGAGGACCAGAGAAAGAUACCAUCUGUGAACUGUGUGGGGAGUCACAUCCAUACCCGGUCAACAGAGGAUUGAGCAUCA
B15: chr3:98797553:98797658:-|3pUTR|ENSG00000057019|msi1|total|mutant (ssRNA)
RNA: GGGAGUUCUACAGUCCGACGAUCAUUUCAUUCAUUGAAGAAUCAAUACAUAUUUUGUUUCAAAAUGUUUGAAACAAAAGACACCGAUGGCCGACUUUUAUUAAAACAUAUAUGGAUGUGGAAAGCACAUAUAUUAAUGCAGUCCAACAGAGGAUUGAGCAUCA
B16: chr14:77132432:77132533:-|3pUTR|ENSG00000177108|unk|total|mutant (ssRNA)
RNA: GGGAGUUCUACAGUCCGACGAUCUGUGAUUGCUGGACCCAGAGGCAAGAUCUGCAGAGAUGCCUGUGAGAUAUUUGCUUUCCCCGAGGGGAGUGUGGGCAUGGGAGGGGUCUGAAAAUCAGGACCCAACCCAGCCACUGAAGACAACAGAGGAUUGAGCAUCA
B17: ENSG00000198589:be:win_7901|CDS|ENSG00000198589|bound_else_gene|NA|bound_elsewhere_windowed (ssRNA)
RNA: GGGAGUUCUACAGUCCGACGAUCCUCGUUCUGAGUCAUAUAUUGGGGGAAAUUGCUACAUUCUCUCAGGGUCACGUGAUGCAACUCUUUUGCUGUGGUAUUGGAAUGGAAAAUGCAGUGGGAUUGGAGAUAACCCAGGCAGUGCAACAGAGGAUUGAGCAUCA
B18: chr11:102396659:102396760:-|3pUTR|ENSG00000152558|msi1_unk|FALSE|overlapping (ssRNA)
RNA: GGGAGUUCUACAGUCCGACGAUCCUUUUUCUCUGUAUGUAAGUAGUAUAAUUUGUUACUUUCAAAUACCCGUACUUUGAAUGUAGGUUUUUUUGUUGUUGUUAUCUAUAAAAAUUGAGGGAAAUGGUUAUGCAAAAAAAUAUUCAACAGAGGAUUGAGCAUCA
B19: chr17:28327902:28328001:+|3pUTR|ENSG00000109084|msi1_unk|total|mutant (ssRNA)
RNA: GGGAGUUCUACAGUCCGACGAUCUCCCUGUAUCUGAAGUCCCGCAUCUCAAGGCUGAUCUGGAAGUGUGCCCGUAUGCUCCCCCGUGGAUAACUUAAUCUUUUAAUACAGUUCCGUCAUUCCCAUCUUGUUUUCAGAAGAGAACAACAGAGGAUUGAGCAUCA
B20: chr8:103427116:103427218:+|CDS|ENSG00000164934|unk|total|mutant (ssRNA)
RNA: GGGAGUUCUACAGUCCGACGAUCGUAUACUGGGAUUGAUCAUCACUGGAAAGAAGCUGUUUUUGCCACAUGUGGACAGCAAGCCGACAUUUGGGAUGAACAAAGAACUAAUCCUAUAUGUUCAAUGACCUGGGGAUUUGACAGCAACAGAGGAUUGAGCAUCA
B21: chr17:41691520:41691533:+|3pUTR|ENSG00000173812|msi1_unk|total|mutant (ssRNA)
RNA: GGGAGUUCUACAGUCCGACGAUCGGAACAAAUCUCAAACUGAUCCAUCAGUCAUGCCGCCCGCUGCCGAGCUUGCAACUUAACCGCAGCAGCUGCCCAAUGCCAUGUGAAGUAACAAACUGGUUUUUGGUUUUUUUUUCCCCUCAACAGAGGAUUGAGCAUCA
B22: chr19:36514967:36515079:-|CDS|ENSG00000254004|unk|FALSE|unique (ssRNA)
RNA: GGGAGUUCUACAGUCCGACGAUCCAUGAAUGCACUGAAUGUGGUAAAGUGUGCUCUCGAGUCUCAUCUCUUACUCUACACCUUAGAAGUCACACAGGAAAGAAGGCAUAUAAAUGUAAUAAAUGUGGAAAAGCCUUCAGCCAGCAACAGAGGAUUGAGCAUCA

Target: T1, UNK ZnF1-6 (called full-length)
Experiment: nsRBNS (natural sequence RNA bind-n-seq); RBNS binding buffer (assumed for nsRBNS): 25 mM Tris pH 7.5, 150 mM KCl, 3 mM MgCl2, 0.01% Triton X-100, 500 ug/ml BSA, 20 U/ml SUPERase-In, 4 C; UNK is unkempt and MSI1 is Musashi-1; names of the RNAs are library labels; protein concentration not given here; high values mean tight binding

Binder	binding signal [enrichment R]
B1	1.44
B2	0.56
B3	0.715
B4	0.459
B5	0.999
B6	1.11
B7	0.588
B8	3.43
B9	0.336
B10	2.44
B11	8.67
B12	0.668
B13	0.392
B14	0.764
B15	0.53
B16	0.528
B17	0.728
B18	1.58
B19	0.767
B20	0.51
B21	0.624
B22	0.418

— paper PMC12136788
